The source gives no read counts; variants with many changes may rest on few reads.

First the molecules themselves.
B1: LINE1-full (parent)
chain: UACGUAGGUGGUUUUCCCCUGAUAGUGCUAAGGGGGCCUGGAAGUUUGGACUGGGCAGAGCUCAACACAGCGUGGCAAAGUGGCUGUGGCUAGACUGCCUCUCUGGAUUCCUCGUCACUCAGCAGGGCAUCUCUGAGAGAAAUGCC

The variants in the data set derive from B1. Briefly: self-cleavage, relative activity (ratio to wild type); higher = more cleavage; in vitro, sequencing; the parent is a self-cleaving ribozyme.
For U29A G74A A136C, the self-cleavage was 1.08.

Take U29C A30U U45C A65G: the self-cleavage is 0.

Take U26C A77U U134A: the self-cleavage was determined as 0.55.

In the case of U29C G41A A136G, the self-cleavage amounted to 1.72.

With U26C U39C G74A, the self-cleavage came to 1.

Regarding A30G A57U U87A U104A, the self-cleavage came to 0.08.

With G27A U45C A94G C101U, the self-cleavage was determined as 0.16.

As to U29A A79G U134C, the self-cleavage worked out at 1.35.

For U26C U45C A140G, the self-cleavage was 0.67.

Turning to U26G A69G U81C, the self-cleavage came to 2.04.

As to U29C A77G A117G U134C U143A, the self-cleavage worked out at 0.

For C28A G36A A117G, the self-cleavage turned out to be 1.11.

On to U26C A31G A65G U112A, for which the self-cleavage was determined as 0.

With U26C U47A A117G, the self-cleavage was found to be 1.36.

For the variant C28U A50U A78G, the self-cleavage was determined as 0.72.

In the case of U29G U47C A141G, the self-cleavage is 1.87.

Consider U26C U46C A77U A121G, for which the self-cleavage was 0.47.

Consider U29C A30U U115C, for which the self-cleavage was determined as 0.35.

As to U26C A77G A136U, the self-cleavage stood at 1.22.

Turning to U26C G53A A107G, the self-cleavage worked out at 0.94.

With U29C A67C U104A, the self-cleavage is 0.03.

On to U29A A57U A121G, for which the self-cleavage came to 0.2.

In the case of U26C U115A A141G, the self-cleavage turned out to be 1.31.

U29C G114C U119C: the self-cleavage came out at 1.89.

U26G A64U U85C U100A A129U: the self-cleavage is 0.11.

For U26C U52C A65U U115C, the self-cleavage stood at 0.

Regarding A30G A57U A59U A69G A79U C116U A124G U134A, the self-cleavage stood at 0.

U26G U115C A138G: the self-cleavage amounted to 2.04.

With U26A U96C U109A A140G, the self-cleavage was found to be 0.07.

Turning to C28A A69G A117G, the self-cleavage came out at 0.35.

For the variant U26C G122A C128U A136G U143C, the self-cleavage is 0.86.

As for U26C U52G A78G, the self-cleavage was 0.92.

Regarding U26C U45C A138G C146U, the self-cleavage came to 0.69.

As for U26C C37G U47A, the self-cleavage was 1.32.

Turning to U26C U87C U100A, the self-cleavage amounted to 0.

For the variant U29C G40A A77G, the self-cleavage amounted to 1.02.

As to U26C U81C G126A, the self-cleavage stood at 1.44.

With A30G A64G U143C, the self-cleavage was found to be 1.31.

For U29C G35A G72A, the self-cleavage is 1.42.

Regarding C28G A59G C66A U96C U143A, the self-cleavage amounted to 0.07.

With U29C U62A U96C U132C, the self-cleavage is 0.

As to U26C A129G A140G, the self-cleavage was 1.36.

Regarding U26C A67G U81A U85C, the self-cleavage came out at 0.

For the variant U26C U46A A79G U100C U132C, the self-cleavage was 1.02.

U29C G72U U112A: the self-cleavage came out at 1.18.

Take U26A U91C U96A: the self-cleavage is 0.05.

For U26C C63U A124C U132A, the self-cleavage is 0.19.

In the case of U29C U85A A117U, the self-cleavage worked out at 0.12.

With U29C C37A A57G A69U, the self-cleavage worked out at 0.13.

Turning to G27A G106A A141G, the self-cleavage was 1.27.

For the variant U26C C95A A142G, the self-cleavage was 0.05.

Consider C28U U102C A117C A141U, for which the self-cleavage was 1.37.

Turning to U26C U73C A140U U143C, the self-cleavage turned out to be 0.84.

Regarding U26C U45A G53A, the self-cleavage was determined as 0.91.

With U26C A42G A67G A136G, the self-cleavage turned out to be 0.77.

Take U26C G49A G135A: the self-cleavage came out at 0.7.

As for U26C A77G U134A, the self-cleavage is 2.46.

In the case of U26A U115C G125U A141G, the self-cleavage was found to be 1.36.

In the case of U29C U39C U52A U119G G126A A136G, the self-cleavage is 0.92.

As for G27A U119C A141G A142U, the self-cleavage worked out at 0.98.

On to U29A C37U U102A U119C A129U, for which the self-cleavage came out at 1.76.

In the case of U26C C76U U130C U132C A136G, the self-cleavage is 2.56.

For the variant U26G U39C U108C, the self-cleavage was 2.21.

For U26C A50G G74A U100A U119C G127A, the self-cleavage turned out to be 0.46.

With U29C U52A A69G, the self-cleavage came out at 0.45.

As to U29A G83C A117G A136G, the self-cleavage worked out at 0.88.

Turning to U29C G72A A138G, the self-cleavage came to 2.07.

For G27A G36U C101U U112C A121G, the self-cleavage stood at 1.29.

As to U26C A42G G114A A138U, the self-cleavage was found to be 0.3.

Take U26C U45C U132C C146U: the self-cleavage is 1.74.

For A30G A59G G126A A138G, the self-cleavage was 0.44.

As to U29C U100C U102C U130A, the self-cleavage amounted to 2.63.

On to U26C A59G U87A, for which the self-cleavage worked out at 0.

U26G A64G G144A: the self-cleavage came to 0.18.

A30C U112G A117G G126A: the self-cleavage came out at 2.36.

A30G A43G U112A: the self-cleavage worked out at 0.43.

In the case of G27A U62C A107G A124G U130C, the self-cleavage was 0.

U26C U46C A57G U104C C116A: the self-cleavage stood at 1.31.

As to U29C A59U A77G, the self-cleavage came to 1.09.

Regarding U26C A43G A78U U115A, the self-cleavage came to 2.08.

With G27A A43U A59G A69C U134C, the self-cleavage came to 0.

With U26C U96G C145A, the self-cleavage stood at 0.16.

Regarding A30G A42G U104C U132C, the self-cleavage is 2.83.

Regarding U29C A129G A142G U143A, the self-cleavage came to 1.53.

As for C28U A30G G32C A64G, the self-cleavage came to 0.12.

As to U29C A31C A42G U52A, the self-cleavage is 0.27.

For U26C A69G C123U U130C, the self-cleavage came to 0.63.

Turning to U29C A67U A77G A94G, the self-cleavage was 0.

On to A30G A64G A77G, for which the self-cleavage turned out to be 0.

With A30G A42G A57G A124U A141U, the self-cleavage amounted to 1.97.

Regarding A30G A57U A59U A77U U102A A124G, the self-cleavage worked out at 0.

With G27C A64G U115A U134C U143C, the self-cleavage amounted to 0.11.

Consider U29C A94U A129G A140G, for which the self-cleavage stood at 0.68.

Turning to U26C U102C A138G, the self-cleavage was determined as 1.63.

Take C28U G32A U39C U62A A65U U85C: the self-cleavage turned out to be 0.

In the case of U26C U46C C84A, the self-cleavage stood at 0.09.

As to U29C U73C U100A U108C, the self-cleavage came out at 0.

For U29C U52C U100C, the self-cleavage was 1.02.

U26C U46A U100C U115C A124U: the self-cleavage worked out at 2.42.

U26C U52A A77G: the self-cleavage amounted to 2.54.

For the variant U29C U46C A50G U130C U134C, the self-cleavage is 0.

Turning to C28G A31G U46C U85C U112C A142G, the self-cleavage came out at 0.

With U29A A65G A67U G93A U102C U104A U132C C145G, the self-cleavage turned out to be 0.06.

Take U26C A50G G106A A124G A136G: the self-cleavage came to 0.54.

For the variant U26A U85C A142G, the self-cleavage was 0.31.

Regarding U26C A79G A107U, the self-cleavage turned out to be 1.15.

Take U29C C90A C99U U134A: the self-cleavage was 0.07.

A30G A57G U62C A64U G82A: the self-cleavage is 0.05.

In the case of U29A A79G A136G, the self-cleavage was determined as 0.66.

For U29C A31G U87C A138G A141G, the self-cleavage is 0.

As for A30G A65U A141G, the self-cleavage was found to be 0.57.

On to U29C U46G A59G U87A, for which the self-cleavage was 0.68.

As to U29A C63U U100C, the self-cleavage was 0.41.

Turning to U29A U39A A43G A67U C113U A124G, the self-cleavage is 0.11.

For U26C U100C U112A, the self-cleavage came to 1.08.

U26C A42G U45C: the self-cleavage amounted to 0.38.

On to U26C A67U A129G, for which the self-cleavage came out at 0.48.

As for G27A A69U A78U A142G, the self-cleavage amounted to 0.03.

U26C G82A U100C U112C: the self-cleavage was determined as 1.58.

U29C G32A U91A: the self-cleavage was determined as 0.59.

As for A30G A67G C90A, the self-cleavage was 0.03.

On to U29C U119C C131U A140G, for which the self-cleavage turned out to be 2.63.

Take U29C A77G A140G: the self-cleavage stood at 1.76.

As to U26C U52C A57G G137A A140G, the self-cleavage worked out at 0.32.

Take U26C G55A A67U U119C: the self-cleavage is 0.06.

Consider U29A A57G U130G, for which the self-cleavage is 0.

U29G G49A U81A G114A A117C: the self-cleavage amounted to 1.31.

Regarding U29C G54A U62A, the self-cleavage was 0.

For U26C A57U A124G A140G, the self-cleavage came out at 0.

As to U26G U52A A117U U143A, the self-cleavage worked out at 1.6.

As to U29C U47A A64U U108C A140G, the self-cleavage was 0.35.

Take C28U U119C A121U A136C: the self-cleavage was found to be 1.27.

U29C A50U U119C: the self-cleavage came out at 1.94.

For G27A U112A A124U A140G, the self-cleavage stood at 1.62.

For C28G A43G G86A, the self-cleavage was found to be 0.16.

U26C A57G U102C: the self-cleavage was found to be 0.42.

For the variant A30G A65G A138G, the self-cleavage was 0.

With U29A A30G G86A, the self-cleavage came out at 0.13.

In the case of U26C A107G U119C, the self-cleavage is 0.33.

Consider U26A U87C U100C C118A C123U, for which the self-cleavage worked out at 0.16.

Regarding U29G U85A U96C, the self-cleavage amounted to 0.15.

As for U26C U62C A65G, the self-cleavage stood at 0.

Take U29C C99U A141G A142G: the self-cleavage was found to be 0.53.

U29G A57G A124G: the self-cleavage worked out at 0.46.

As for C28A U45C A141G, the self-cleavage was 1.3.

For the variant U29C G60A A69G U132A, the self-cleavage is 0.

Consider U29C G41A U47C U62C, for which the self-cleavage was 0.

With U29C A69U A142G, the self-cleavage worked out at 0.11.

As to U29A U85A U96G, the self-cleavage is 0.2.

With A30C A67U A77G, the self-cleavage is 0.48.

Take A30G A31G U143A: the self-cleavage was found to be 1.14.

As to U26G U45C U104C, the self-cleavage came out at 0.

As for A30G A57U A121U C131U, the self-cleavage was 0.2.

For U26A U87A C123G, the self-cleavage was 0.08.

Turning to C28A A59G U104A, the self-cleavage worked out at 0.07.

On to U26C A31G U112A, for which the self-cleavage is 1.97.

Consider U26C C71U A79G, for which the self-cleavage was found to be 1.03.

Regarding C28G U46C U62C A69G C111U U115C A141G, the self-cleavage was determined as 0.

For U26G G41A A59U G127A, the self-cleavage came to 0.65.

As for C28U A65G U143C, the self-cleavage is 0.07.

With U26G C76U A79G A129U, the self-cleavage amounted to 2.16.

On to G27A G55U A129G, for which the self-cleavage amounted to 0.16.

On to A30C G33A G70A U85C G86A, for which the self-cleavage was 0.03.

Turning to U29G A69G U134A, the self-cleavage amounted to 0.17.

In the case of U29A C101A A129U, the self-cleavage stood at 0.82.

For the variant U26C G34A C66U, the self-cleavage was determined as 0.04.

Turning to U26C C37G A59U, the self-cleavage is 1.

For the origin of these results see the RNAGym collection of RNA variant scans (doi:10.7554/elife.90254).
